# According to the supplement of paper PMC3334620:
# Whole data set: some 33,000 sequences, median “E-score (-0.5 to 0.5)” near -0.016, cut for the highest 2% near 0.31. This is one part of the list.
# Target: Cst6 (UniProt P40535)
# Assay: PBM E-score (8-mer binding enrichment) (E-score (-0.5 to 0.5)); higher = stronger / more preferred TF binding; most listed sequences are background and not binding sites
# Settings: protein concentration: 200 nM; construct: GST-DNA-binding domain
# Outline: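 PURExpress in vitro transcription/translation supplied GST-tagged yeast transcription factors, either full-length or DNA-binding domain. Applied at about 100-200 nM to universal all-10-mer Agilent arrays double-stranded by primer extension, the bound protein was detected with fluorescent anti-GST. E-scores, modified Wilcoxon-Mann-Whitney statistics, were given by the Universal PBM Analysis Suite to ungapped eight-base words pooled with their reverse complements after masliner normalisation.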
row,Sequence,PBM E-score
1,AGGGAGCG,-0.271
2,ATGCCTTC,0.0129
3,ACCGACCA,-0.013
4,ATCAAGGA,-0.0436
5,AAAGATCA,0.138
6,ACACCTAC,-0.0999
7,ATGTAAAA,0.144
8,CCTTTCCC,-0.141
9,ACCGTCTC,-0.0847
10,CCGTTGAC,0.0706
11,GATTTTAA,0.186
12,ACAACAGG,-0.00954
13,CTAAAAAA,0.273
14,ATGAGTGC,0.0932
15,ATGCAAAT,0.0716
16,AACCATCA,0.0459
17,ATTCATAC,0.214
18,GCTCTACA,-0.0228
19,AGTACTAC,0.232
20,AGAGAAGC,-0.0869
21,GGCTGGCA,-0.275
22,AAAATCAG,0.116
23,CAAGGTAA,0.0213
24,ATGGATTG,0.0726
25,CTCTTATC,0.14

row,Sequence,PBM E-score
1,CTTATCAA,0.151
2,ACAAGGGC,-0.155
3,AGTGTAAG,-0.11
4,CCCTAAGG,-0.295
5,AGCGGAGA,0.12
6,TCAGTCAA,0.102
7,GATTGCGC,0.0307
8,CAGGGCGC,0.2
9,CGCGGAAC,0.139
10,GGCGACAA,-0.0515
11,ACAGCCAA,0.0206
12,AGGCGACG,0.0326
13,GGGGACCC,-0.416
14,AATCTCCT,-0.0446
15,CCCGTGAC,0.151
16,GTCGGATA,-0.064
17,ACTATATC,0.128
18,CATAGCTA,-0.114
19,ATGGAGAG,-0.0364
20,CGAGGCCA,-0.153
21,CTTTCCTA,-0.163
22,AGGTTGGA,-0.0474
23,ATCGTGTG,0.0247
24,CTGTTGAA,0.155
25,TACCCCGA,-0.0623

row,Sequence,PBM E-score
1,GTACAAAA,0.181
2,ACTCAAGG,-0.117
3,ATTTCACC,0.135
4,CAACGTTC,-0.13
5,ATATCCCA,0.0771
6,CAGTTGTA,-0.0936
7,CGTCAATC,0.337
8,AGAAGTAG,-0.0196
9,ATTTTGGC,0.166
10,ACTGGTTA,0.0197
11,ACTTTAAC,0.00978
12,ACAGGCCA,-0.202
13,CGCGGATA,0.142
14,GGTAGTCA,-0.245
15,ATCACCAG,0.116
16,ACTGAAAA,0.124
17,CTTCTCTC,-0.00992
18,ACGCCTCG,0.137
19,CTTAGCTA,-0.00204
20,AGCTACGC,0.00388
21,TAAAGAAA,0.273
22,ACGTTAGG,0.112
23,ACGAACGC,0.0777
24,GGAACTCA,-0.248
25,TCATGGAA,0.199

row,Sequence,PBM E-score
1,AGTAGCAC,-0.0285
2,AAGGATAG,-0.0331
3,CTGACCGC,-0.131
4,TCATAGGA,0.152
5,ACATGGGT,0.00268
6,ACAAGGGT,0.0183
7,CCGGAGAC,-0.0155
8,CAGAGGAC,-0.168
9,ACTAGTAT,0.172
10,ATAGAACC,-0.17
11,ACAGACCA,-0.0613
12,ACGGATCT,0.0414
13,GTATTCGA,-0.12
14,GTGGGCGA,-0.0822
15,CCATGAAA,0.139
16,CTAGCCAC,-0.244
17,GCGTTGTA,0.033
18,AGATTTTA,0.119
19,TATTGGGA,0.0862
20,GGAGGACC,-0.27
21,CACCGATG,0.0639
22,CCCGATTA,0.0746
23,AGGACTGC,-0.332
24,AGACTCAG,-0.285
25,GGTACTAC,-0.0399

row,Sequence,PBM E-score
1,CTTCGGGC,-0.323
2,AGTAGCCC,-0.299
3,CGCAGTTC,-0.106
4,CCACTAAG,-0.209
5,AGTGGCAT,-0.0032
6,GCGAAGCA,-0.143
7,GGGAAGAC,-0.271
8,TAGCTAAA,0.0924
9,AGGGATGG,-0.216
10,AGTTTTGC,0.222
11,CGGACTAA,-0.023
12,CACACCAG,0.00466
13,ACGACGCA,0.145
14,AATCCCCA,-0.116
15,CTGCACAG,-0.21
16,ATCCTCAA,0.0384
17,GCAATCGA,-0.0177
18,ATTACGCG,0.326
19,ACGTCATG,0.495
20,ACCAGCGA,-0.177
21,CGGGTAAC,-0.124
22,CAGCCGCA,-0.0628
23,ACCTTTGA,-0.156
24,CACCGGAA,0.0999
25,CCATGTGA,-0.00346

row,Sequence,PBM E-score
1,AAATTAGA,0.186
2,CTCGTTGA,0.0901
3,TCCAATCA,-0.122
4,ATTGACAG,0.0614
5,GAAAGTCC,-0.268
6,GAATTCAC,0.0689
7,GTATCCAA,-0.168
8,CGCTTGAG,-0.0977
9,AAGCGACA,0.0385
10,AAGGTAGT,-0.0235
11,AACGCAGC,0.0257
12,AGTAACGA,-0.0647
13,GACACATA,0.0617
14,AGGAACTC,-0.0807
15,AGATAAAA,0.209
16,AATTTCGT,0.206
17,AGGCCGCA,-0.0331
18,ATTATATA,0.239
19,CCGACACA,-0.179
20,CGATATCA,0.145
21,CACCGTCC,-0.173
22,AATCGCCG,0.195
23,GCCGGTGA,0.0691
24,ACTGTTCA,-0.147
25,TCGCTAAA,0.115

row,Sequence,PBM E-score
1,AGGTCCAT,-0.0689
2,CACTCACA,-0.0959
3,CATACCTC,0.0788
4,CCTGGGCA,-0.248
5,ATTAAGCG,0.108
6,CGTCCGGA,-0.0761
7,ACGTCTAT,0.0358
8,CACGTATA,0.167
9,GGCAAACC,-0.204
10,AGCGTTCA,-0.286
11,TAACCTCA,0.0767
12,CATCGGAC,-0.157
13,AGCTATGA,0.101
14,AAATCTGA,0.205
15,GCGGTGAA,0.0906
16,ACCATCCA,-0.151
17,CCATCAAG,-0.165
18,GGACTCCA,-0.178
19,AGAAAACG,0.168
20,CCCCATGA,0.144
21,GACCCACC,-0.203
22,GATACCCA,-0.139
